Reference: US20230312724A1 (KADMON, published 2023)

What was measured:
mouse B7-H4-his = molecular target: T1, mouse B7-H4-his (mouse, UniProt Q7TSP5 25-257); assay: ELISA on coated mouse B7-H4his
T1 construct: also called mB7-H4-his; mB7-H4-His; not shown: his tag
T1 sequence: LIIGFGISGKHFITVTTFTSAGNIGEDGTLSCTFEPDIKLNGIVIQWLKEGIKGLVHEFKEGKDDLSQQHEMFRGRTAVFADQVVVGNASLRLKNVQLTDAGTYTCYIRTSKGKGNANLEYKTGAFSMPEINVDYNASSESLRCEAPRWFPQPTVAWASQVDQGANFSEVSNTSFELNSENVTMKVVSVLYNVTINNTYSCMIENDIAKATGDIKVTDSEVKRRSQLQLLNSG
Description: (§1) About 1-2 μg/ml of human or mouse B7-H4-Fc (or his-tagged) was immobilized on ELISA plates (Immuno 2HB, Thermo scientific, cat #3455) at 4° C. overnight. After blocking the plates with 3% PBS+milk, serial diluted antibodies were added to the blocked plates and incubated at RT for 1-1.5 h. After washing the plates with PBS-T (0.05%), horse radish peroxidase (HRP)-conjugated antibody targeting the hFab was added to the plate. Signals were developed by adding 3,3′,5,5′-Tetramethylbenzidine (TMB (followed 1N of H₂SO₄ to stop the reaction. The OD at 450 nm was read by ELISA plate reader (Infinite M1000 from TECAN). GraphPad from Prism was used to plot OD450 vs. antibody concentration curve and to calculate the EC50 values.

mouse B7-H4-Fc = molecular target: T2, mouse B7-H4-Fc (mouse; human); assay: ELISA on coated mouse B7-H4Fc
Sequence of mouse B7-H4-Fc (chain, as listed by the source): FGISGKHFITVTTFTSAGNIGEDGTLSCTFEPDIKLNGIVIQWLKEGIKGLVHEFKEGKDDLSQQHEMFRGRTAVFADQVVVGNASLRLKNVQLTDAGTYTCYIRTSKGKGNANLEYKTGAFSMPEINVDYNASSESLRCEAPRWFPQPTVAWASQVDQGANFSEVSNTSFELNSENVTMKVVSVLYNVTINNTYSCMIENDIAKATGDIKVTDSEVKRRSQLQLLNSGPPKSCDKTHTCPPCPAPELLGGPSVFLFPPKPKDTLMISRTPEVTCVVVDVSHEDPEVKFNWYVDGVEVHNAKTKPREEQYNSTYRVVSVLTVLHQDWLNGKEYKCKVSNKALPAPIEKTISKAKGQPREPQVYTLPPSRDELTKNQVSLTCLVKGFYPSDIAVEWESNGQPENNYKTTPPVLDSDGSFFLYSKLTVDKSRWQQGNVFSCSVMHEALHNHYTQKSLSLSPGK
T2 construct: also called mB7-H4-Fc; mB7-H4-hFc
Description: as §1

human B7-H4-Fc = molecular target: T3, human B7-H4-Fc (human); assay: ELISA on coated human B7-H4Fc
Sequence of human B7-H4-Fc (chain, as listed by the source): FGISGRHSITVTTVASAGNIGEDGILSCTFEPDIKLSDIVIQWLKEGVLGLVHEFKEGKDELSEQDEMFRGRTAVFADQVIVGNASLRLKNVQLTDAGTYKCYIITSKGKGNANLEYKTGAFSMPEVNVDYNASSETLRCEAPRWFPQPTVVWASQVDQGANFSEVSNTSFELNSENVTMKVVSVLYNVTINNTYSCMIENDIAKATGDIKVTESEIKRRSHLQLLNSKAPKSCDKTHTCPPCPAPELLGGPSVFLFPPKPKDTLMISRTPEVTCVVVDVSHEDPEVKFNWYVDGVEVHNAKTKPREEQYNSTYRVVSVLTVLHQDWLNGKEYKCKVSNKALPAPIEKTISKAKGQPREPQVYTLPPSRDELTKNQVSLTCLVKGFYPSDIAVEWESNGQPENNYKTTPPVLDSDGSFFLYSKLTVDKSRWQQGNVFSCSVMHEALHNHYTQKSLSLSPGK
T3 construct: also called hB7-H4-Fc; hB7-H4 Fc
Description: as §1

[1] = molecular target: T4, human B7-H4 expressed on cells (human, UniProt Q7Z7D3 25-282); assay: flow cytometry on SK-BR-3 cells
T4 construct: Transfected CHO cells or tumor cell lines that carry hB7-H4; also called cellular hB7-H4
T4 sequence: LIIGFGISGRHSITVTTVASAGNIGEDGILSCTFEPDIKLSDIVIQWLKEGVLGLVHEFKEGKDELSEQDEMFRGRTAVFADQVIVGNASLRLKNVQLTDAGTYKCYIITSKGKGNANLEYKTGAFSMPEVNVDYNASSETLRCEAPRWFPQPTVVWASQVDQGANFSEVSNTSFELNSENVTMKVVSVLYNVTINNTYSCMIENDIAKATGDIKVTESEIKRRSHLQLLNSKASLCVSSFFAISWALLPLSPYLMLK
Description: Cells were harvested, washed once, and then re-suspended to the concentration of 1×10⁶ cells/ml in ice cold FACS Buffer. 25 μl of cell suspension was added to each well of a 96-well round-bottom microliter plate. Serially diluted antibodies or fusion proteins were added to each well and incubated for 1 hour at 4° C. Cells were washed three times by centrifugation at 1500 rpm for 5 minutes, and then stained with secondary antibody (1:200 dilution) for 30 min at 4° C. in the dark. Cells were washed once, re-suspended in 100 μl PBS buffer and then analyzed using Guava Flow Cytometry EasyCyte system.

B1: 3F2/50A10-IL15-LS (other)
heavy 1: QVQLVQSGAEVKKPGASVKVSCKASGYTFTAQYMYWVRQAPGQGLEWMGRINPTSGNTVYAQKLQGRVTMTRDTSTSTVYMELSSLRSEDTAVYYCARGINWFDPWGQGTLVTVSSASTKGPSVFPLAPSSKSTSGGTAALGCLVKDYFPEPVTVSWNSGALTSGVHTFPAVLQSSGLYSLSSVVTVPSSSLGTQTYICNVNHKPSNTKVDKKVEPKSCDKTHTCPPCPAPELLGGPSVFLFPPKPKDTLMISRTPEVTCVVVDVSHEDPEVKFNWYVDGVEVHNAKTKPREEQYNSTYRVVSVLTVLHQDWLNGKEYKCKVSNKALPAPIEKTISKAKGQPREPQVYTLPPCRDELTKNQVSLWCLVKGFYPSDIAVEWESNGQPENNYKTTPPVLDSDGSFFLYSKLTVDKSRWQQGNVFSCSVLHEALHSHYTQKSLSLSPGK
heavy 2: QVQLVQSGAEVKKPGASVKVSCKASGYTFTAQYMYWVRQAPGQGLEWMGRINPTSGNTVYAQKLQGRVTMTRDTSTSTVYMELSSLRSEDTAVYYCARGINWFDPWGQGTLVTVSSASTKGPSVFPLAPSSKSTSGGTAALGCLVKDYFPEPVTVSWNSGALTSGVHTFPAVLQSSGLYSLSSVVTVPSSSLGTQTYICNVNHKPSNTKVDKKVEPKSCDKTHTCPPCPAPELLGGPSVFLFPPKPKDTLMISRTPEVTCVVVDVSHEDPEVKFNWYVDGVEVHNAKTKPREEQYNSTYRVVSVLTVLHQDWLNGKEYKCKVSNKALPAPIEKTISKAKGQPREPQVCTLPPSRDELTKNQVSLSCAVKGFYPSDIAVEWESNGQPENNYKTTPPVLDSDGSFFLVSKLTVDKSRWQQGNVFSCSVLHEALHSHYTQKSLSLSPGSCPPPMSVEHADIWVKSYSLYSRERYICNSGFKRKAGTSSLTECVLNKATNVAHWTTPSLKCIRDPALVHQRPAPPSGGSGGGGSGGGSGGGGSLQ[letters of about 120 residues not shown]
light: DIQMTQSPSSLSASVGDRVTITCQASQDISNYINWYQQKPGKAPKLLIYAASRLQSGVPSRFSGSGSGTDFTLTISSLQPEDFATYYCQQSYRSPFTFGQGTKLEIKRTVAAPSVFIFPPSDEQLKSGTASVVCLLNNFYPREAKVQWKVDNALQSGNSQESVTEQDSKDSTYSLSSTLTLSKADYEKHKVYACEVTHQGLSSPVTKSFNRGEC
notes: As 50A10/IL15 with M428L/N434S (LS) in both heavy chains
With B1 the binding result (mouse B7-H4-his) was “no binding (tested: 10 nM)”, the binding result (mouse B7-H4-Fc) was “no binding (tested: 10 nM)” and the “EC50 (read off the curve)” value (human B7-H4-Fc) was ~0.1 nM.

B2: 39A11/57G8-IL15-LS (other)
heavy 1: EVQLLESGGGLVQPGGSLRLSCAASGFTFSSYGMHWVRQAPGKGLEWVASISSSSGYIYYADSVKGRFTISRDNSKNTLYLQMNSLRAEDTAVYYCARASSGMDVWGQGTTVTVSSASTKGPSVFPLAPSSKSTSGGTAALGCLVKDYFPEPVTVSWNSGALTSGVHTFPAVLQSSGLYSLSSVVTVPSSSLGTQTYICNVNHKPSNTKVDKKVEPKSCDKTHTCPPCPAPELLGGPSVFLFPPKPKDTLMISRTPEVTCVVVDVSHEDPEVKFNWYVDGVEVHNAKTKPREEQYNSTYRVVSVLTVLHQDWLNGKEYKCKVSNKALPAPIEKTISKAKGQPREPQVYTLPPCRDELTKNQVSLWCLVKGFYPSDIAVEWESNGQPENNYKTTPPVLDSDGSFFLYSKLTVDKSRWQQGNVFSCSVLHEALHSHYTQKSLSLSPGK
heavy 2: EVQLLESGGGLVQPGGSLRLSCAASGFTFSSYGMHWVRQAPGKGLEWVASISSSSGYIYYADSVKGRFTISRDNSKNTLYLQMNSLRAEDTAVYYCARASSGMDVWGQGTTVTVSSASTKGPSVFPLAPSSKSTSGGTAALGCLVKDYFPEPVTVSWNSGALTSGVHTFPAVLQSSGLYSLSSVVTVPSSSLGTQTYICNVNHKPSNTKVDKKVEPKSCDKTHTCPPCPAPELLGGPSVFLFPPKPKDTLMISRTPEVTCVVVDVSHEDPEVKFNWYVDGVEVHNAKTKPREEQYNSTYRVVSVLTVLHQDWLNGKEYKCKVSNKALPAPIEKTISKAKGQPREPQVCTLPPSRDELTKNQVSLSCAVKGFYPSDIAVEWESNGQPENNYKTTPPVLDSDGSFFLVSKLTVDKSRWQQGNVFSCSVLHEALHSHYTQKSLSLSPGSCPPPMSVEHADIWVKSYSLYSRERYICNSGFKRKAGTSSLTECVLNKATNVAHWTTPSLKCIRDPALVHQRPAPPSGGSGGGGSGGGSGGGGSLQ[letters of about 120 residues not shown]
light: DIQMTQSPSSLSASVGDRVTITCRASQSIRSYLNWYQQKPGKAPKLLIYYASSLQSGVPSRFSGSGSGTDFTLTISSLQPEDFATYYCQQYYSTPLTFGQGTKVEIKRTVAAPSVFIFPPSDEQLKSGTASVVCLLNNFYPREAKVQWKVDNALQSGNSQESVTEQDSKDSTYSLSSTLTLSKADYEKHKVYACEVTHQGLSSPVTKSFNRGEC
notes: As 57G8/IL15 with M428L/N434S (LS) in both heavy chains
In the case of B2, the “EC50 (read off the curve)” value (mouse B7-H4-his) is reported as ~0.2 nM, the “EC50 (read off the curve)” value (mouse B7-H4-Fc) is reported as ~0.2 nM and the “EC50 (read off the curve)” value (human B7-H4-Fc) is reported as ~0.2 nM. For the same binder, the “EC50 (read off the curve)” value [1] was ~2 nM.
